The results in this text go back to patent publication US20240417452A1 (BIOTHEUS, published 2024).

The target in assay [1] is T1, monkey MSLN (cyMSLN, Uniprot ID: F6Q1U7) on CHO cells (monkey).
T1 construct: whole, on cells; also called CHO-cyMSLN cells
The experiment in a line: flow cytometry on CHO-cyMSLN cells. In general terms: A flow cytometer gives signals particle by particle.

Assay [2] addresses T2, human MSLN (Uniprot ID: Q13421), soluble protein (human, UniProt Q13421 296-580).
T2 construct: also called mesothelin
The experiment in a line: BLI (ForteBio), method of Example 3.

The target in assay [3] is T2, human MSLN (Uniprot ID: Q13421), …. As to the kind of experiment: blocking ELISA: human MSLN coated, serially diluted antibody, then 1 ug/mL Biotin-CA125 as competitor, SA-HRP. A general note: ELISA stands for enzyme-linked immunosorbent assay.
Assay [4] deals with T3, mouse MSLN (mMSLN, Uniprot ID: Q61468) on CHO cells (mouse, UniProt Q61468 298-600).
T3 construct: whole, on cells; also called CHO-mMSLN cells
T3 sequence (looked up): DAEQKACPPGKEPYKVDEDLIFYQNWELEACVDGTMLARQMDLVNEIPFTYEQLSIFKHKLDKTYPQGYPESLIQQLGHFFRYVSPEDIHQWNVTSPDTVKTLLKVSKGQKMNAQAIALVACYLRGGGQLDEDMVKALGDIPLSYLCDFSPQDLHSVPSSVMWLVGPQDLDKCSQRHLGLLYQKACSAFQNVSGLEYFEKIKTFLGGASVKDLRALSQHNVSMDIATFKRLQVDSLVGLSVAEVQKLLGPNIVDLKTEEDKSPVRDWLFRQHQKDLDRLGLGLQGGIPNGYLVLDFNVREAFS
The experiment in a line: flow cytometry on CHO-mMSLN cells.

Assay [5] has as its target T4, human MSLN (Uniprot ID: Q13421) overexpressed on CHO cells (human, UniProt Q13421 296-598).
T4 construct: whole, on cells; also called CHO-hMSLN cells; CHO-MSLN cells
The experiment in a line: flow cytometry on CHO-hMSLN cells.

Assay [6] concerns the target T4, human MSLN (Uniprot ID: Q13421) …. The experiment in a line: flow cytometry on CHO-hMSLN cells, anti-human IgG-Fc PE.
For assay [7], the target named is T2, human MSLN (Uniprot ID: Q13421), …. As to the kind of experiment: BLI (ForteBio), antibody on AHQ sensor, 100 nM human MSLN in solution, 1:1 model. Background: In BLI a coated tip is dipped into the sample, and binding shifts an interference pattern.

B1: humanized anti-MSLN nanobody HZ-P-YE-17-02 (VHH fused to human IgG1 Fc) (Fc fusion)
chain: QVQLVESGGGVVQPGGSLRLSCATSGTIFSRNGMGWFRQAPGKQRELVARILNDGTTMYADSVKGRFTISRDNSKNTVYLQMNSLKPEDTAVYYCGYSDYRGTDYWGQGTQVTVSS[human IgG1 Fc with changes omitted]
notes: also called HZ-YE-17-02
One may read the EC50 as the concentration that produces a half-maximal response. As a reminder, the Kd is the concentration at which binding is half-saturated. For orientation: koff means the first-order rate constant of dissociation. The term kon denotes the rate constant with which the complex forms. For B1, the EC50 in assay [1] stood at 0.63 nM; in assay [3], 2.63 nM; in assay [4], 7.29 nM; in assay [5], 0.551 nM. In assay [2], this molecule yielded a Kd of 2.2 nM. Moreover, the koff in assay [2] is 0.000888 s⁻¹. This molecule registered a kon in assay [2] of 403000 M⁻¹ s⁻¹.

B2: anti-MSLN nanobody YE-17 (VHH fused to human IgG1 Fc) (Fc fusion)
chain: QVQLQESGGGLVQPGGSLRLSCATSGTIFSRNGMGWFRQAPGEQRELVARILNDGTTMYADSVKGRFTISRDNAKNTVLLQMNSLKPEDTAVYYCGYSDYRGTDYWGQGTQVTVSS[human IgG1 Fc with changes omitted]
notes: No linker between VHH and Fc is stated; also called anti-MSLN antibody YE-17
In the case of B2, the EC50 in assay [6] came to 0.965 nM; in assay [1], 0.716 nM; in assay [3], 5.96 nM; in assay [4], 6.31 nM; in assay [5] it was 0.305 nM. The figures for the koff in assay [2] and in assay [7] were 0.00059 s⁻¹ and 0.000104 s⁻¹, respectively. Moreover, the on-rate (kon) was found to be 421000 M⁻¹ s⁻¹ in assay [2] and 550000 M⁻¹ s⁻¹ in assay [7]. The molecule further came in with a dissociation constant (Kd) in assay [7] of 0.188 nM.

B3: humanized anti-MSLN nanobody HZ-P-YE-17-04 (VHH fused to human IgG1 Fc) (Fc fusion)
chain: QVQLVESGGGVVQPGGSLRLSCATSGTIFSRNGMGWFRQAPGKGLELVARILNDGTTMYADSVKGRFTISRDNSKNTVYLQMNSLRAEDTAVYYCGYSDYRGTDYWGQGTQVTVSS[human IgG1 Fc with changes omitted]
notes: also called HZ-YE-17-04
As to B3, a half-maximal effect in assay [1] (EC50) was put at 1.01 nM. In addition, in assay [2], the dissociation constant (Kd) amounted to 19.3 nM, the koff is 0.00636 s⁻¹ and the association rate constant (kon) worked out at 329000 M⁻¹ s⁻¹. For the same molecule, in assay [3], the EC50 was 3.23 nM. In assay [5], this molecule displayed an EC50 of 0.34 nM.

B4: humanized anti-MSLN nanobody HZ-P-YE-17-03 (VHH fused to human IgG1 Fc) (Fc fusion)
chain: QVQLVESGGGVVQPGGSLRLSCATSGTIFSRNGMGWFRQAPGKGLELVARILNDGTTMYADSVKGRFTISRDNSKNTVYLQMNSLKPEDTAVYYCGYSDYRGTDYWGQGTQVTVSS[human IgG1 Fc with changes omitted]
notes: also called HZ-YE-17-03
With B4, the EC50 in assay [1] came out at 0.708 nM; in assay [3], 4.75 nM; in assay [4], 22.4 nM; in assay [5], 0.241 nM. This molecule displayed an equilibrium dissociation constant (Kd) in assay [2] of 19.1 nM. The molecule further returned a koff in assay [2] of 0.0064 s⁻¹. Also, the kon in assay [2] amounted to 336000 M⁻¹ s⁻¹.

B5: humanized anti-MSLN nanobody HZ-P-YE-17-01 (VHH fused to human IgG1 Fc) (Fc fusion)
chain: QVQLVESGGGVVQPGGSLRLSCATSGTIFSRNGMGWFRQAPGEQRELVARILNDGTTMYADSVKGRFTISRDNSKNTVLLQMNSLKPEDTAVYYCGYSDYRGTDYWGQGTQVTVSS[human IgG1 Fc with changes omitted]
notes: also called HZ-YE-17-01
As for B5, the concentration giving a half-maximal response (EC50) in assay [1] was 1.24 nM; in assay [3], 3.34 nM; in assay [4], 13 nM; in assay [5], 0.477 nM. Besides, in assay [2], binding was put at a Kd of 0.807 nM. Further, in assay [2], the off-rate constant (koff) was found to be 0.000325 s⁻¹. In assay [2], the association rate constant (kon) was found to be 402000 M⁻¹ s⁻¹.
